Test results taken from the supplement of paper PMC4967469.
IC50 is the fitted dose that halves viability relative to control wells, and lower means more sensitive; a fit beyond the top or the lowest dose is shown as a bound at that dose. The AUC spans the tested range (256-fold, ending at the top dose) of the same fit; the more sensitive the line, the further below 1.

These cell lines were tested with CC[C@H](Nc1ncnc2[nH]cnc12)c1nc2cccc(F)c2c(=O)n1-c1ccccc1 [CAL-101] (assay: Viability of human cancer cell lines after 72 h of drug (GDSC screen)).
Method: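 Human cancer cell lines in 384-well plates, medium with 10% serum, drug for 72 h over a 256-fold dose range (nine 2-fold or five 4-fold steps up to the top dose). Adherent lines were fixed and stained with the nucleic acid dye Syto60, suspension lines read with resazurin; signal relative to control wells, capped at 0 and 100%. One two-parameter sigmoid per drug and line, fitted in a mixed model over all curves with the slope shared within a line.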

Cell Line | AUC | IC50
SW48 (large intestine, adherent, top dose 20 µM) | 0.974 | > 20 µM
SW156 (kidney, adherent, top dose 20 µM) | 0.898 | > 20 µM
SW620 (large intestine, adherent, top dose 20 µM) | 0.962 | > 20 µM
SW626 (ovary, adherent, top dose 20 µM) | 0.87 | > 20 µM
SW684 (fibrosarcoma, adherent, top dose 20 µM) | 0.983 | > 20 µM
SW756 (cervix, adherent, top dose 20 µM) | 0.983 | > 20 µM
SW780 (bladder, adherent, top dose 20 µM) | 0.985 | > 20 µM
SW837 (large intestine, adherent, top dose 20 µM) | 0.959 | > 20 µM
SW872 (soft tissue, adherent, top dose 20 µM) | 0.978 | > 20 µM
SW900 (lung squamous cell carcinoma, adherent, top dose 20 µM) | 0.959 | > 20 µM
SW948 (large intestine, adherent, top dose 20 µM) | 0.968 | > 20 µM
SW954 (urogenital system, adherent, top dose 20 µM) | 0.869 | 18.7 µM
SW962 (urogenital system, adherent, top dose 20 µM) | 0.945 | > 20 µM
SW982 (soft tissue, adherent, top dose 20 µM) | 0.984 | > 20 µM
SW1088 (glioma, adherent, top dose 20 µM) | 0.953 | > 20 µM
SW1116 (large intestine, adherent, top dose 20 µM) | 0.983 | > 20 µM
SW1271 (small cell lung carcinoma, adherent, top dose 20 µM) | 0.958 | > 20 µM
SW1417 (large intestine, adherent, top dose 20 µM) | 0.972 | > 20 µM
SW1463 (large intestine, adherent, top dose 20 µM) | 0.6 | 2.85 µM
SW1573 (lung adenocarcinoma, adherent, top dose 20 µM) | 0.964 | > 20 µM
SW1710 (bladder, adherent, top dose 20 µM) | 0.879 | > 20 µM

Cell Line | AUC | IC50
SW1783 (glioma, adherent, top dose 20 µM) | 0.947 | > 20 µM
SW1990 (pancreas, adherent, top dose 20 µM) | 0.982 | > 20 µM
Saos-2 (osteosarcoma, adherent, top dose 20 µM) | 0.971 | > 20 µM
SiHa (cervix, adherent, top dose 20 µM) | 0.986 | > 20 µM
T47D (breast, adherent, top dose 20 µM) | 0.765 | 11.5 µM
T84 (large intestine, adherent, top dose 20 µM) | 0.974 | > 20 µM
T98G (glioma, adherent, top dose 20 µM) | 0.962 | > 20 µM
T-24 (bladder, adherent, top dose 20 µM) | 0.957 | > 20 µM
T-T (oesophagus, adherent, top dose 20 µM) | 0.986 | > 20 µM
TALL-1 (T-cell lymphoblastic leukaemia, suspension, top dose 20 µM) | 0.987 | > 20 µM
TC-71 (Ewing sarcoma, adherent, top dose 20 µM) | 0.986 | > 20 µM
TCCSUP (bladder, adherent, top dose 20 µM) | 0.98 | > 20 µM
TE-1 (oesophagus, adherent, top dose 20 µM) | 0.972 | > 20 µM
TE-4 (oesophagus, adherent, top dose 20 µM) | 0.98 | > 20 µM
TE-5 (oesophagus, adherent, top dose 20 µM) | 0.973 | > 20 µM
TE-6 (oesophagus, adherent, top dose 20 µM) | 0.963 | > 20 µM
TE-8 (oesophagus, adherent, top dose 20 µM) | 0.96 | > 20 µM
TE-9 (oesophagus, adherent, top dose 20 µM) | 0.984 | > 20 µM
TE-10 (oesophagus, adherent, top dose 20 µM) | 0.972 | > 20 µM
TE-11 (oesophagus, adherent, top dose 20 µM) | 0.986 | > 20 µM
